The text below walks through data of the supplement of paper PMC11417369.

± gives the standard deviation of the averaged measurements. Some of the results follow.

The test system of this experiment is PfAP2-EXP AP2 domain (GST-tagged). Briefly: gcPBM binding intensity (ln(normalized median fluorescence intensity)); higher = stronger DNA binding. In a few lines:
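Probes on an Agilent 4 × 180k array were primer-extended, double-stranded and 36 bp long, taken from intergenic genomic regions, with negative controls added. GST-tagged P. falciparum DNA-binding domains from E. coli, about 25 μg on average, were applied to the array for 1 h in 1× PBS containing 1% milk, 0.2 mg/ml BSA, 0.5% salmon testes DNA and 0.03% Triton X-100. Binding intensity, obtained after Alexa488 anti-GST antibody detection and a 488 nm scan, is the highest Masliner-normalised natural-log median intensity across replicate spots of either probe orientation.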
Consider “TGAAGGTCAGTTCACAGTACCCAGTAACTCTACGGA [XGTACX_site2554]”, for which the “gcPBM binding intensity (ln)” value stood at 8.4 ± 0.47.
Regarding “ATAAAAAAATAAATTAGTACATATATATATATATAT [XGTACX_site6971]”, the “gcPBM binding intensity (ln)” value worked out at 10.1 ± 0.35.
Turning to “TTACGCATACTAATTACACACAAATAGATGAATATA [CACACA_site1338]”, the “gcPBM binding intensity (ln)” value worked out at 8.47 ± 0.38.
In the case of “GTTGCGTATATATACACACATACATATATATATATA [CACACA_site1607]”, the “gcPBM binding intensity (ln)” value is 10.1 ± 0.23.
In the case of “TTATATAATAAAAATTGTACATATTATATATATATT [XGTACX_site3427]”, the “gcPBM binding intensity (ln)” value was 8.19 ± 0.26.
The same measure for “TATGAAAGAAATAGTACACACATAAACATTTGTAAA [CACACA_site2783]”: 8.44 ± 0.28.
On to “TAATATTCAATTATACGTACACATATATATATATAT [XGTACX_site4245]”, for which the “gcPBM binding intensity (ln)” value is 10.2 ± 0.2.
Turning to TCATATATCATAACAGTGCAAAAAAAAAAAAATTAT, the “gcPBM binding intensity (ln)” value is 8.8 ± 0.41.
The same measure for “AGAAAATATACAAAACGTACTTATATATTATATCTA [XGTACX_site3104]”: 8.2 ± 0.3; for “GTTTGATTAAACTTGACACACATATATATAAATATA [CACACA_site1784]”: 8.43 ± 0.54; for “AAAAAAAAAAAAGAAACACACATATATATATATATA [CACACA_site140]”: 10.1 ± 0.6.
The same measure for “GTTAGAGGGAAAAAGAGTACATATATGTGGATAATT [XGTACX_site2064]”: 9 ± 0.44.
As for “TATTTATGTATATGCTGTACGCATTTGTGAAACATA [XGTACX_site4688]”, the “gcPBM binding intensity (ln)” value was found to be 8.72 ± 0.38.
“AACCAATTAGAAGGATCCAGAACTTATTTGTTTTTA [CACACA_negctrl_site1744]”: the “gcPBM binding intensity (ln)” value turned out to be 8.18 ± 0.54.
In the case of “AGTTTGTCAATCAACACACACCTATTTATTATATAT [CACACA_site6030]”, the “gcPBM binding intensity (ln)” value is 8.52 ± 0.29.
The same measure for “TACAAGCCCAATTCAAGTACATATATATATATATAT [XGTACX_site5569]”: 10.2 ± 0.44; for “ATTCATTCATATGTTACACACACACGCCCACATAAA [CACACA_site7513]”: 9 ± 0.37; for “TAAAAAAAGGTTATTGGTACACACATATGTATATAT [XGTACX_site1029]”: 8.49 ± 0.3.
The same measure for “TTATATATATATATATATATTTACATAATAATATGT [GTGCAC_negctrl_site388]”: 8.48 ± 0.16; for “TAAACTTTCCAGTGTTGTACATAATAATTATTATAT [XGTACX_site8896]”: 8.51 ± 0.35.
The same measure for “AAAGATATGAAATATACACACTTCTTTGGTATTATT [CACACA_site6352]”: 8.2 ± 0.48; for “AAATATTTATAGGTTTGTACTTATAAATAAAAAAAA [XGTACX_site7360]”: 8.43 ± 0.24.
In the case of “TTTATAAAAATGAACACACACATATATATATATATA [CACACA_site3493]”, the “gcPBM binding intensity (ln)” value came out at 10.4 ± 0.3.
Turning to “AATATGAAAAGATGAACAACAAAATGGAGAACAATA [GTGCAC_negctrl_site612]”, the “gcPBM binding intensity (ln)” value amounted to 9.12 ± 0.57.
For the sequence “ATACAAAATTTTTAAGAACACACAAAAATGTACTAT [CACACA_site8817]”, the “gcPBM binding intensity (ln)” value amounted to 8.64 ± 0.38.
With “TGAGGTAACTAAATATGTACGTAACGAAGATACATA [XGTACX_site8231]”, the “gcPBM binding intensity (ln)” value stood at 8.78 ± 0.35.
Then “GAACGCCATTCACATAAAGGGATACATAAATAAATA [XGTACX_negctrl_site330]”, with 8.4 ± 0.42; and “GCGTTATTAAATAATTCACACACATATATATATATA [CACACA_site8711]”, with 10 ± 0.38.
Regarding “AAGAAAAACTTTACGTGTACCAAACGTCATGCCAAC [XGTACX_site2575]”, the “gcPBM binding intensity (ln)” value is 8.55 ± 0.53.
On to “TAATTTCTTATGTATTGTACAAATAATGTATGATAT [XGTACX_site270]”, for which the “gcPBM binding intensity (ln)” value was 8.68 ± 0.32.
Take “TTCTTGTATTTTCATAGTACATATAATGTCGTATTA [XGTACX_site600]”: the “gcPBM binding intensity (ln)” value turned out to be 8.71 ± 0.38.
For “TACTTACACTGTTTTTGTACTTATTTCCCTTTTATT [XGTACX_site2158]”, the “gcPBM binding intensity (ln)” value turned out to be 9.12 ± 0.6.
Turning to “AATCACAAATAAAATAATATGACACAATATAAAATA [CACACA_negctrl_site537]”, the “gcPBM binding intensity (ln)” value worked out at 8.61 ± 0.37.
As for “AAATGTTATAACTCTTGAAAAAACAAAATATCATCA [CACACA_negctrl_site1156]”, the “gcPBM binding intensity (ln)” value is 8.41 ± 0.47.
With “ACTTTACAATATATATGTACATATTAATAAACATAT [XGTACX_site3689]”, the “gcPBM binding intensity (ln)” value amounted to 8.74 ± 0.42.
Turning to “AAAATAATATATGTATGTACATATACACATATAGAA [XGTACX_site2218]”, the “gcPBM binding intensity (ln)” value turned out to be 8.4 ± 0.092.
Consider “GAGTTTTTTTAATGATGTACATTTTAAAAATAAACG [XGTACX_site1036]”, for which the “gcPBM binding intensity (ln)” value stood at 8.48 ± 0.21.
Turning to “TTTATTATACAAAATTGTACTTTATAATTTTATGTA [XGTACX_site5846]”, the “gcPBM binding intensity (ln)” value is 8.38 ± 0.16.
Then “AAATATTACGGAATAAAGAGCTTTTAAATAATTTTA [CACACA_negctrl_site1700]”, with 8.11 ± 0.52.
Take “AGAAACCTTGTTAGTTAGCATATATATATATATATA [CACACA_negctrl_site372]”: the “gcPBM binding intensity (ln)” value is 10.2 ± 0.49.
“AAATATAAACGGCACACACACAAAAAAAGAAAAAAA [CACACA_site649]”: the “gcPBM binding intensity (ln)” value was 8.71 ± 0.52.
The same measure for “TATTTTATACATATTTTACACACTAATATATACATA [CACACA_site7998]”: 8.56 ± 0.34; for “GAATATAATCTGTATTGTACGAAAGTTGAACACTTG [XGTACX_site8895]”: 8.44 ± 0.31.
The same measure for “TGAGCATAAAAAGGGTGTACTTAAATATATTATATA [XGTACX_site7556]”: 8.54 ± 0.35.
